Common to all, as to experiment: Primary Screen for Target Class Profiling of Small Molecule Inhibitors of Methyltransferases
In assay [1] the target is Glycine N-methyltransferase (Homo sapiens) (UniProt Q14749). Particulars: purified enzyme, MTase-Glo SAH luminescence; measured here: GNMT inhibition; at 40 µM; stronger effect = lower value. The method, boiled down: (§1)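 Each enzyme was reacted with SAM and its substrate, with compounds tested once at 40 uM; SAH formed was read by MTase-Glo luminescence.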
The target in assay [2] is Guanidinoacetate N-methyltransferase (Homo sapiens) (UniProt Q14353). The note with it: purified enzyme, MTase-Glo SAH luminescence; measured here: GAMT inhibition; at 40 µM; stronger effect = lower value. The method, boiled down: as §1
The target of assay [3] is Histamine N-methyltransferase (Homo sapiens) (UniProt P50135). The note with it: purified enzyme, MTase-Glo SAH luminescence; measured here: HNMT inhibition; at 40 µM; stronger effect = lower value. The method, boiled down:
as §1

For assay [4], the target named is Nicotinamide N-methyltransferase (Homo sapiens) (UniProt P40261). Particulars: purified enzyme, MTase-Glo SAH luminescence; measured here: NNMT inhibition; at 40 µM; stronger effect = lower value. In short, it runs like this: as §1
The target in assay [5] is Phenylethanolamine N-methyltransferase (Homo sapiens) (UniProt P11086). The note with it: purified enzyme, MTase-Glo SAH luminescence; measured here: PNMT inhibition; at 40 µM; stronger effect = lower value. The method, boiled down: as §1

Structures are written as SMILES. This is one part of the list. Further columns of the screen follow, without active or inactive calls.
% is set by controls: 0 for no effect and ±100 for the full control effect.

As for `COC(=O)c1cc2n(n1)CC(C)(C(=O)NC1CCC(C)CC1)N(Cc1ccccc1C)C2=O` (configuration not stated), the activity change, negative = inhibition in assay [1] is 0.418%; in assay [2], 0%; in assay [3], 5.21%; in assay [4], -0.889%; in assay [5], -0.577%.
The corresponding values for `CCCN1C(=O)c2cc3sc(CC)cc3n2CC1(C)C(=O)NC1CCC(C)CC1` (configuration not stated) are -0.664%, 1.55%, 2.82%, 0.929% and -0.831%.
As for `COC(=O)c1c(NC(C)=O)c2cc(NC3CCCC(C)(C)C3)cnc2n1CC1CCCO1` (configuration not stated), the activity change, negative = inhibition in assay [1] was -4%; in assay [2] it was -3.84%; in assay [3] it was -2.41%; in assay [4] it was -7.24%; in assay [5], -3.6%.
The corresponding values for `CN(C)C(=O)CNC(=O)Cc1ccccc1` are 0.19%, -0.962%, 12.3%, -10.7% and 0.059%.
Regarding `CC(C)(F)CC(NC(c1ccc(-c2ccc(S(C)(=O)=O)cc2)cc1)C(F)(F)F)C(=O)NC1(C#N)CC1` (configuration not stated), the activity change, negative = inhibition was 0.175% in assay [1] and 5.09% in assay [3].
Take `CCN1C(=O)C2(CCN(S(=O)(=O)c3c(C)nn(C)c3C)CC2)c2ccccc21`: the activity change, negative = inhibition was -9.99% in assay [1]; -11.8% in assay [2]; -7.04% in assay [3]; -21.1% in assay [4]; -14.1% in assay [5].
For `CC(C)CCNC(=O)CCc1nnc2n(Cc3ccc(F)cc3)c(=O)c3ccccc3n12` the same measures were -4.15%, 2.23%, 5.82%, 1.8% and 0.12%.
`Cc1ccc2nc(C(=O)N3CCCC3c3cc(C(C)C)on3)cn2c1` (configuration not stated): the activity change, negative = inhibition in assay [1] was -5.25%; in assay [2], -1.56%; in assay [3], -3.49%; in assay [4] it was -7.44%; in assay [5], -6.88%.
For `COc1cccc(Cn2nc3n(CCc4ccccc4)c(=O)c4ccccc4n3c2=O)c1` the same measures were -8.38%, 0.379%, -0.7%, -9.77% and -2.65%.
The corresponding values for `Cc1nc(C)c2c(n1)N(Cc1ccc(-c3ccccc3-c3nn[nH]n3)cc1)C(=O)CC2` are -16.4%, 0.529%, 11.6%, -18.7% and 1.16%.
For `CCCSCCCN1C(=O)c2cc3sc(CC)cc3n2CC1(C)C(=O)NC1CCCCC1` (configuration not stated) the same measures were 2.98%, 0%, 7.06%, 12.2% and 1.33%.
As for `CN1CCCN(C[C@@H]2CN(C(=O)c3ccn(C)n3)C[C@@H]2CO)CC1`, the activity change, negative = inhibition was -2.15% in assay [1]; 1.02% in assay [2]; -1.49% in assay [3]; -2.46% in assay [4]; 1.17% in assay [5].
For `COc1ccc(NC(=O)Cn2nc3n(Cc4ccc(F)cc4)c(=O)c4ccccc4n3c2=O)cc1` the same measures were -3.59%, -3.33%, 1.34%, -7.03% and -4.07%.
For `Cc1ccccc1CC(=O)N1CC(F)(F)C[C@H]1c1nnc(C2CC2)o1` the same measures were 0.85%, 1.25%, 2.77%, -7.66% and 2.44%.
For `C=CS(=O)(=O)NC1CCN(C(=O)CNc2cc(I)c(Cl)cc2OC)CC1` the same measures were -13.3%, -5.43%, 2.58%, -24% and -0.686%.
For the compound `COc1ccc(-c2cc3n(n2)CC(C)(C(=O)NCc2ccccc2OC)N(Cc2ccc(F)cc2)C3=O)cc1` (configuration not stated), the activity change, negative = inhibition in assay [1] is 2.54%; in assay [2] it was 0%; in assay [3] it was 2.97%; in assay [4], 2.01%; in assay [5], -3.4%.
For `CCc1ccc(C(=O)NC(Cc2c[nH]c3ccccc23)C(=O)OCC(=O)c2ccccc2)cc1` (configuration not stated) the same measures were -0.77%, 4.83%, 4.5%, -5.72% and -1.56%.
The corresponding values for `CC(N=C(NC#N)Nc1ccncc1)C(C)(C)C` (configuration not stated) are -7.48%, 4.44%, 1.1%, -4.92% and 6.11%.
Turning to `C=C1[C@@H]2CC[C@@]3(C)[C@H](c4ccoc4)OC(=O)C[C@]13O[C@H]1CC(=O)C(C)(C)[C@H](C(O)C(=O)OC)[C@]12C` (some centres not stated), the activity change, negative = inhibition in assay [1] is 0.141%; in assay [2], -6.15%; in assay [3], 6.41%; in assay [4], -20.8%; in assay [5] it was 1.03%.
For `COc1cccc(CNC(=O)c2cc3n(n2)CC(C)(C(=O)NC2CCCC2)N(C)C3=O)c1` (configuration not stated) the same measures were 2.15%, 4.72%, -1.54%, 1.99% and -1.6%.
The corresponding values for `Cc1ccc(CNC(=O)C2(C)Cn3c(nc4ccccc43)C(=O)N2Cc2cccc(C)c2)cc1` (configuration not stated) are 2.35%, 2.84%, 0.969%, 2.56% and -0.758%.
In the case of `COc1ccc(-c2nccn2CC(CO)Cc2ccsc2)cc1O` (configuration not stated), the activity change, negative = inhibition is -1.28% in assay [1]; -3.48% in assay [2]; -34.8% in assay [3]; -4% in assay [4]; -2.05% in assay [5].
The corresponding values for `CC1(C)CC[C@]2(C(=O)O[C@@H]3O[C@H](CO)[C@@H](O)[C@H](O)[C@H]3O)CC[C@]3(C)C(=CCC4[C@@]5(C)CC[C@H](O[C@@H]6O[C@H](C(=O)O)[C@H](O)[C@H](O)[C@H]6O)C(C)(C)C5CC[C@]43C)[C@@H]2C1` (some centres not stated) are -4.31%, 3.82%, 4.35%, -8.42% and -4.58%.
Turning to `COc1ccc2cc3n(c2c1)CC(C)(C(=O)NC1CCCCC1)N(Cc1ccccc1C)C3=O` (configuration not stated), the activity change, negative = inhibition in assay [1] is -2.59%; in assay [2], -0.033%; in assay [3], -2.43%; in assay [4], -3.67%; in assay [5], -6.34%.
For `CC1(C(=O)NC2CCCCCC2)Cn2c(cc3occc32)C(=O)N1CCN1CCCC1` (configuration not stated) the same measures were 1.7%, 0.49%, -4.64%, 4.16% and 0.708%.
For `Cc1nn2c(c1-c1ccccc1-c1ccccc1)N(C(=O)c1cnccn1)CCC2` the same measures were -7.11%, -10.3%, -4.02%, -16.2% and 4.86%.
For `COc1ccccc1CNC(=O)C1(C)Cn2nc(-c3ccccc3)cc2C(=O)N1c1ccc(F)cc1C` (configuration not stated) the same measures were 5.42%, 0%, 6.03%, 5.66% and 0.308%.
Take `O=S(=O)(c1ccccc1)c1nnn2c1nc(N1CCN(c3ccc(F)cc3)CC1)c1ccccc12`: the activity change, negative = inhibition is 2.45% in assay [1]; 4.84% in assay [2]; -1.89% in assay [3]; 3.69% in assay [4]; 3.2% in assay [5].
For the compound `CCc1ccc(CN2C(=O)c3ccc(-c4ccccc4)n3CC2(C)C(=O)NC2CCCCC2)cc1` (configuration not stated), the activity change, negative = inhibition in assay [1] stood at 9.37%; in assay [2], 0%; in assay [3], 8.12%; in assay [4], 5.27%; in assay [5] it was 3.85%.
`CC1(C(=O)NC2CCCCCC2)Cn2nc(-c3ccco3)cc2C(=O)N1Cc1ccc2c(c1)OCO2` (configuration not stated): the activity change, negative = inhibition in assay [1] is -11.7%; in assay [2], 1.31%; in assay [3] it was -7.78%; in assay [4], -13.9%; in assay [5], -8.22%.

(Values after PubChem BioAssay AID1745853 (National Center for Advancing Translational Sciences (NCATS), 2022).)
